Biological target: C3d抗原 (补体C3d分子)
Experiment: non-competitive ELISA; C3d coated at 2, 1, 0.5, 0.25 μg/ml, 2-fold dilutions of ScFv, HRP/anti-ScFv secondary, Ka formula

Chain of C3d抗原 (补体C3d分子) (chain, as listed by the source): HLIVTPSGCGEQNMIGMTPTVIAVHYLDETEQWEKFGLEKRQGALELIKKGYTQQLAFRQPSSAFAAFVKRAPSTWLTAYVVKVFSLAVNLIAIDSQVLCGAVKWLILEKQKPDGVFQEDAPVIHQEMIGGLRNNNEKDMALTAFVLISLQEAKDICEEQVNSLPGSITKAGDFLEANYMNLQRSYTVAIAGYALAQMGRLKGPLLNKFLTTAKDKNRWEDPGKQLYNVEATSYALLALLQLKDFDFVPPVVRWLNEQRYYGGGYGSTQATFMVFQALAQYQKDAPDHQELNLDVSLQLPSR

B1: 人源抗补体C3d分子的单链抗体 V H -Linker-V L (ScFv) (scFv)
scFv: [about 100 residues not given here]GINPLGDVDDWGQGTLVTVSSAGGGGSGGGGSGGGGSMASYELTQPPSVSVAPGQTARITCSGDALGDKYASWYQQKPGQAPVLVIYEDSKRPSGIPERFSGSNSGNTATLTISGTQAEDEADYYCSSRDGGQHVFGGGTKLTVL
notes: Human scFv from a naive phage library, expressed in CHO cells from pEE14.1/VH-Linker-VL and purified (about 26 kD); No tag or signal peptide is described; also called 抗C3d单链抗体; 靶向C3d的单链抗体
B1 was tested, and the Kd was 122 nM.
